Measurements: paper PMC5602299
Positions count from the first letter of the chain named. Results are given in words; binding and its absence hold for the method and conditions named. In cells and extracts the contact can be indirect. Some binding calls cover weakened binding; strength is not graded here. Where a sequence is shown, tags or fusion partners need not be part of it.

Chains of the proteins cited; added tags and fusions are not shown.
UniProt P10244: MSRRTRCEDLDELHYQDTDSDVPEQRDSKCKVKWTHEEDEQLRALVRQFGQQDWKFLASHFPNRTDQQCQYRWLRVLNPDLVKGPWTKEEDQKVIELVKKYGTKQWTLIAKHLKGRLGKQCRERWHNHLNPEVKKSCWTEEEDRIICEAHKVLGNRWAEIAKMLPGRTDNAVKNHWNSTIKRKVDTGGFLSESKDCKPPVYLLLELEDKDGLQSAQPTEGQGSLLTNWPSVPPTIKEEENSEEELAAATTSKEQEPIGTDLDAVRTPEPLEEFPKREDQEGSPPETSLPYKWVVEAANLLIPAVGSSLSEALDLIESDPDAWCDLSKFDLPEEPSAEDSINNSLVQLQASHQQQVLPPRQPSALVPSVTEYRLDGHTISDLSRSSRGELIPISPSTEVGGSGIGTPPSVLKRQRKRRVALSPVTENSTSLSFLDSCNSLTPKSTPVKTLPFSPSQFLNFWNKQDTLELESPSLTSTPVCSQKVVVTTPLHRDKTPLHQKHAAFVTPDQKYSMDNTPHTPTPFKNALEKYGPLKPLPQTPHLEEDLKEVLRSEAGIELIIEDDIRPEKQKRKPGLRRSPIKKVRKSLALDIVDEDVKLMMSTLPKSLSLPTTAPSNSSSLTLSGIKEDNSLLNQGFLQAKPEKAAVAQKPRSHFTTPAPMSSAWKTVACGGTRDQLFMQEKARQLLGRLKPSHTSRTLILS
UniProt P48972: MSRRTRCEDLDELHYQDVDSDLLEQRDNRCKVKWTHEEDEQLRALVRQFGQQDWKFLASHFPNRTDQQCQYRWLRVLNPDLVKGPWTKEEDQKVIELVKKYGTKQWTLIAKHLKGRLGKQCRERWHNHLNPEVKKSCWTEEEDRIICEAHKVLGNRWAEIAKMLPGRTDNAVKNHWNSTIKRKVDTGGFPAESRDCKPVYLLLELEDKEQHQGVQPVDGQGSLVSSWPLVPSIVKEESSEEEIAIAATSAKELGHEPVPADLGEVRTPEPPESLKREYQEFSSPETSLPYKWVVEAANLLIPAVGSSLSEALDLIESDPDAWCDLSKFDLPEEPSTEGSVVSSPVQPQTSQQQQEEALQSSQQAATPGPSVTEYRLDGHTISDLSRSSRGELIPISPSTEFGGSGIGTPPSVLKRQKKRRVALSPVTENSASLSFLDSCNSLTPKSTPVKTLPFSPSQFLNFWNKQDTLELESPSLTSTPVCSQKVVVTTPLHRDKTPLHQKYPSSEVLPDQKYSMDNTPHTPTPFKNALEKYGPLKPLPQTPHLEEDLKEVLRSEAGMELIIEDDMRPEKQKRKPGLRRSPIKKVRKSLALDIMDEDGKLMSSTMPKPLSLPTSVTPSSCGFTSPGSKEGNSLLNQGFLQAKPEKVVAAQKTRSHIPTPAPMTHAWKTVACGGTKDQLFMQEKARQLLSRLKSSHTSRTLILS
UniProt Q6MZP7: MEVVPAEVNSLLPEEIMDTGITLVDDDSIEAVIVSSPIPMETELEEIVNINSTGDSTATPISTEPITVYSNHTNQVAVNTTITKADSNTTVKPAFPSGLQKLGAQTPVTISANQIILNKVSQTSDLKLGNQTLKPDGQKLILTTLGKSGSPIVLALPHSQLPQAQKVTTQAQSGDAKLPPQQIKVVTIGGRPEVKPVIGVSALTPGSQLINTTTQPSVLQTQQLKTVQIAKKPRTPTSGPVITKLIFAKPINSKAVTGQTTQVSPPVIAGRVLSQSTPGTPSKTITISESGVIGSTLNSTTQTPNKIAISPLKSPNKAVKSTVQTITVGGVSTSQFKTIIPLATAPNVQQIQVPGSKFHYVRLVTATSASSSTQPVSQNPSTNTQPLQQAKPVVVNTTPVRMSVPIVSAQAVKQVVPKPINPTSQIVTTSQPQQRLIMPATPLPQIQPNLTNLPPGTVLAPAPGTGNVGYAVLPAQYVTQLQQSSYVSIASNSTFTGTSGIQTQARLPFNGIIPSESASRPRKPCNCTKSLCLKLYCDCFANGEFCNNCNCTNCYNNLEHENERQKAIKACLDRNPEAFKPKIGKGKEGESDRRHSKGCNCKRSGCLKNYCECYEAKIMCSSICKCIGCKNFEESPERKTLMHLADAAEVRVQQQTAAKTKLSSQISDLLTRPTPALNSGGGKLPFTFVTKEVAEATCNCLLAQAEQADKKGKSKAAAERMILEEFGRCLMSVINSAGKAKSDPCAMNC

Assays:
[1] = target: T1, Lin37 CD1 mutant (D101A/R102G/S103A) with C-terminal EGFP tag (mouse) (UniProt Q9D8N6); experiment: co-IP; C-terminally EGFP-tagged Lin37 variants expressed in HCT116 cells; whole cell extracts in IP lysis buffer; precipitated with anti-EGFP antibodies (µMACS GFP Isolation Kit); endogenous partners detected by Western blot
T1 sequence: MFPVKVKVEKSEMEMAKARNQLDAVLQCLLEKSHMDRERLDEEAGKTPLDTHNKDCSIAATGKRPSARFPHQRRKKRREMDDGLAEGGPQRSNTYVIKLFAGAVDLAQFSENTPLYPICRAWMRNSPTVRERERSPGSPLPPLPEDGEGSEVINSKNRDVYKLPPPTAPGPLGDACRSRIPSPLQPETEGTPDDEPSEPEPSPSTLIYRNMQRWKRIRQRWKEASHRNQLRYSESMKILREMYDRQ

[2] = target: T2, Lin37 CD1+2 mutant (D101A/R102G/S103A and C119A/R120G) with C-terminal EGFP tag (mouse) (UniProt Q9D8N6); experiment: as above
T2 sequence: T1 sequence with C119A, R120G

[3] = target: T3, Lin37 CD2 mutant (C119A/R120G) with C-terminal EGFP tag (mouse) (UniProt Q9D8N6); experiment: as above
T3 sequence: T1 sequence with A101D, G102R, A103S, C119A, R120G

[4] = target: T4, Lin37 wild-type with C-terminal EGFP tag (mouse) (UniProt Q9D8N6); experiment: as above
T4 sequence: T1 sequence with A101D, G102R, A103S

[5] = target: T5, Lin37 CD1 mutant (D101A/R102G/S103A) with N-terminal FLAG tag (mouse) (UniProt Q9D8N6); experiment: co-IP; N-terminally FLAG-tagged Lin37 variants expressed in NIH3T3 cells; whole cell extracts in IP lysis buffer; precipitated with anti-Flag antibodies (µMACS DYKDDDDK Isolation Kit); endogenous partners detected by Western blot
T5 sequence: T1 sequence

[6] = target: T6, Lin37 CD1+2 mutant (D101A/R102G/S103A and C119A/R120G) with N-terminal FLAG tag (mouse) (UniProt Q9D8N6); experiment: as above
T6 sequence: T1 sequence with C119A, R120G

[7] = target: T7, Lin37 CD2 mutant (C119A/R120G) with N-terminal FLAG tag (mouse) (UniProt Q9D8N6); experiment: as above
T7 sequence: T1 sequence with A101D, G102R, A103S, C119A, R120G

[8] = target: T8, Lin37 wild-type with N-terminal FLAG tag (mouse) (UniProt Q9D8N6); experiment: as above
T8 sequence: T1 sequence with A101D, G102R, A103S

Which binding [1] does the source give for “B-myb (endogenous, HCT116) (from UniProt P10244 1-700)” here?
The binding was “binds”.

What about the binding [2] of the same molecule?
Its binding is “no binding”.

What about the binding [3] of the same molecule?
The binding was “binds”.

And the binding [4]?
Its binding is “binds”.

For “B-myb (endogenous, NIH3T3) (from UniProt P48972 1-704)”, which binding [5] is on record?
The binding was “binds”.

And the binding [6]?
The binding was “no binding”.

What about the binding [7] of the same molecule?
Its binding is “binds”.

What about the binding [8] of the same molecule?
The binding was “binds”.

Which binding [1] does the source give for “Lin9 (endogenous, HCT116) (from UniProt Q5TKA1 1-542)” here?
Its binding is “binds”.

And the binding [2]?
The binding was “no binding”.

What about the binding [3] of the same molecule?
Its binding is “binds”.

What about the binding [4] of the same molecule?
The binding was “binds”.

For “Lin54 (endogenous, HCT116) (from UniProt Q6MZP7 1-749)”, which binding [1] is on record?
Its binding is “binds”.

What about the binding [2] of the same molecule?
Its binding is “no binding”.

What about the binding [3] of the same molecule?
The binding was “binds”.

And the binding [4]?
Its binding is “binds”.

B1: Lin9 (endogenous, NIH3T3) (protein, UniProt Q8C735 1-542)
chain: MAELDQLPDESSSAKALVSLKEGSLSNTWNEKYSSLQKTPVWKGRNAGPAVEMPFRNSKRSRLFSDEDDRQINTKSPKRNQRVAMIPQKFTATMSTPDKKASQKIGFRLRNLLKLPKAHKWCIYEWFYSNIDKPLFEGDNDFCVCLKESFPNLKTRKLTRVEWGKIRRLMGKPRRCSSAFFEEERSALKQKRQKIRLLQQRKVADVSQFKDLPDEIPLPLVIGTKVTARLRGIHDGLFTGQIDAVDTLNATYRVTFDRTGLGTHTIPDYEVLSNEPHETMPISAFGQKQRPSRFFMTPPRLHYTPPLQSPITDGDPLLGQSPWRSKVSGSDTETLGGFPVEFLIQVTKLSKILMIKKEHIKKLREMNTEAEKLKSYSMPIGIEFQRRYATIVLELEQLNKDLNKVLHKVQQYCYELAPDQGLQPADQPTDMRRRCEEEAQEIVRQANSASGQPCVENENLTDLISRLTAILLQIKCLAEGGDLNSFEFKSLTDSLNDIKNTIDASNISCFQNNVEIHVAHIQSGLSQMGNLHAFAANNTNRD
What does the source list for B1?
binding [5]: binds; binding [6]: no binding; binding [7]: binds; binding [8]: binds

B2: Lin54 (endogenous, NIH3T3) (protein, UniProt Q571G4 1-749)
chain: MEVVPAEVNSLLPDDIMDTAITLVDEDSIEAVIVSSPIPMETELEEIVNINSTGDSTATPISTEPITVYSNHTNQVAVNTTVSKADSNTTVKPAFPSGLQKLGAQTPVTISANQIILNKVSQTSDLKLGNQTLKPDGQKLILTTLGKSGSPIVLALPHSQLPQAQKVTAQAQPGDAKLPPQQIKVVTIGGRPEVKPVIGVSALTPGSQLINTTTQPSVLQTQQLKTVQIAKKPRTPTSGPVITKLIFAKPINSKAVTGQTTQASPPVVTGRVLSQSTPGTPSKTITISESGVIGSTLNSTTQTPNKIAISPLKSPNKTVKSAVQTITVGGMSTSQFKTIIPLATAPNVQQIQVPGSKFHYVRLVTATTASSSAQPVSQSPSVNTQPLQQAKPVVVNTTPVRMSVPFVQAQAVKQVVPKPINSTSQIVTTSQPQQRLIMPATPLPQIQPNLTNLPPGTVLAPAPGTGNVGYAVLPAQYVTQLQQSSYVSIASNSNFTGTSGIQTQARLPFNGIIPSESTSRPRKPCNCTKSLCLKLYCDCFANGEFCNNCNCTNCYNNLEHENERQKAIKACLDRNPEAFKPKIGKGKEGESDRRHSKGCNCKRSGCLKNYCECYEAKIMCSSICKCIGCKNFEESPERKTLMHLADAAEVRVQQQTAAKTKLSSQISDLLTRPTPALNSAGGKLPFTFVTKEVAEATCNCLLAQAEQADKKGKSKAAAERMILEEFGRCLMSVINSAGKAKSDPCAMHC
Which binding [5] does the source give for B2 here?
The binding was “binds”.

What about the binding [6] of the same molecule?
Its binding is “no binding”.

What about the binding [7] of the same molecule?
Its binding is “binds”.

What about the binding [8] of the same molecule?
The binding was “binds”.
